The record followed here is patent publication US5637617A, “Methods for use of GABAa receptor GABAergic compounds” (The Regents of the University of California, priority 1994, dated 1997).

The test system of the experiment is rat cerebral cortex GABAA receptors expressed in oocytes. The format is cell-based. As to conditions: for Potentiation at 10 μM (%) / Potentiation at 100 μM (%): Table 1, IG-Actx elicited by 10 μM GABA (<10% of maximum current), mean ± S.D., oocytes from the same frog, negative = inhibition; for potentiation of IG-Actx: drug ≤10 μM; for EC50: mean ±S.D., n=3-4, read-out: EC50 values for the facilitatory effects; for efficacy of potentiation: between mefenamic acid (≈300%) and niflumic acid (<50%); for Facilitatory effects after wash: 0.3-1 μM drug, 3-10 minute wash; for maximum levels of potentiation: FIG. 2, 1 minute pre-incubation.

Setting [1] is: Example VIII, IG-Actx elicited by 10 μM GABA.
The mark [2] stands for this setting: Example VIII, 10 μM GABA, drug 100 μM.

Where two headings read alike, the source gives them in different places.

Turning to `CC(=O)Oc1ccccc1C(=O)O` [Acetylsalicylic acid], the “Potentiation at 10 μM (%)” value (drug 10 μM) is “-- (no appreciable effect (<5% change from control))”. Further, the “Potentiation at 100 μM (%)” value (drug 100 μM) is recorded as “-- (no appreciable effect (<5% change from control))”.
`O=C(O)Cc1ccccc1Nc1c(Cl)cccc1Cl` [Diclofenac]: the “Potentiation at 10 μM (%)” value (drug 10 μM) was “-- (no appreciable effect (<5% change from control))”. Besides, the “Potentiation at 100 μM (%)” value (drug 100 μM) is “-- (no appreciable effect (<5% change from control))”.
In the case of `O=C(O)c1cc(-c2ccc(F)cc2F)ccc1O` [Diflunisal, diflunisal], the “potentiation of IG-Actx” value (10 μM GABA) was “comparable with flufenamic and meclofenamic acids”. The “Potentiation at 10 μM (%)” value (drug 10 μM) is reported as 155 ± 24%. For the same compound, the “Potentiation at 100 μM (%)” value (drug 100 μM) is 191 ± 29%.
For the compound `CC(C(=O)O)c1cccc(Oc2ccccc2)c1` (stereo not shown) [Fenoprofen], the “effect on IG-Actx” value (10 μM GABA, drug 100 μM) is given as “some weak potentiation”. The “Potentiation at 10 μM (%)” value (drug 10 μM) is recorded as “-- (no appreciable effect (<5% change from control))”. For the same compound, under “drug 100 μM”, the “Potentiation at 100 μM (%)” value is 27 ± 6%.
The term EC50 denotes the concentration giving half of the maximal effect. In the case of `O=C(O)c1ccccc1Nc1cccc(C(F)(F)F)c1` [Flufenamic acid], the “efficacy of potentiation” value is given as “intermediate efficacies”. In addition, where the note is “IG-Actx elicited by 10 μM GABA”, the “Concentrations necessary to induce threshold levels of potentiation” value (from here on “Concentrations necessary”) fell in the range of 0.3 to 1 µM and the EC50 is 8.8 ± 1.2 µM. In addition, under “drug 10 μM”, the “Potentiation at 10 μM (%)” value came to 156 ± 42%.
Turning to `CC(C(=O)O)c1ccc(-c2ccccc2)c(F)c1` (stereo not shown) [Flurbiprofen], the “effect on IG-Actx” value (10 μM GABA, drug 100 μM) was “slight reductions in current”. The “Potentiation at 10 μM (%)” value (drug 10 μM) was “-- (no appreciable effect (<5% change from control))”. Also, under “drug 100 μM”, the “Potentiation at 100 μM (%)” value is listed as -7 ± 4%.
For the compound `O=C(O)c1ccccc1Nc1ccccc1C(=O)O` [IDBA, 2.2'-Iminodibenzoic acid], the “modulatory effect on IG-Actx” value under setting [1] was “wholly inactive as a positive modulator”. The “effect on currents elicited by 10 μM GABA” value (drug ≥100 μM, FIG. 6A) is “only inhibitory effects”.
On to `COc1ccc2c(c1)c(CC(=O)O)c(C)n2C(=O)c1ccc(Cl)cc1` [Indomethacin], for which, for the setting “10 μM GABA, drug 100 μM”, the “effect on IG-Actx” value is “marginal increases”. Moreover, the “Potentiation at 10 μM (%)” value (drug 10 μM) is “-- (no appreciable effect (<5% change from control))”. Besides, for the setting “drug 100 μM”, the “Potentiation at 100 μM (%)” value worked out at 15 ± 10%.
Take `CC(C(=O)O)c1cccc(C(=O)c2ccccc2)c1` (stereo not shown) [Ketoprofen]: the “Potentiation at 10 μM (%)” value (drug 10 μM) is reported as “-- (no appreciable effect (<5% change from control))”. Further, the “Potentiation at 100 μM (%)” value (drug 100 μM) was “-- (no appreciable effect (<5% change from control))”.
In the case of `Cc1ccc(Cl)c(Nc2ccccc2C(=O)O)c1Cl` [Meclofenamate, Meclofenamic acid], the “Facilitatory effects after wash” value is “essentially undetectable” and the “efficacy of potentiation” value was “intermediate efficacies”. Also, where the note is “IG-Actx elicited by 10 μM GABA”, the “Concentrations necessary” value is 0.1 to 0.3 µM and the concentration giving a half-maximal response (EC50) worked out at 6 µM. For the same compound, the “Potentiation at 10 μM (%)” value (drug 10 μM) is recorded as 183 ± 40%.
Take `Cc1cccc(Nc2ccccc2C(=O)O)c1C` [Mefenamic acid]: the “Facilitatory effects after wash” value is on record as “essentially undetectable” and the “maximum levels of potentiation” value is given as “≈ 300%”. For the same compound, under “100 μM drug, same cell as NPAA”, the “residual effects after wash” value is “still present after 60 minutes”. Also, under “5-15 min pre-incubations in 0.5-10 μM drug”, the “effect of extended pre-incubation versus co-application with GABA” value is listed as “only marginally higher levels of facilitation”. For the same compound, the “amplification of the current response of GABAA receptors” value (FIG. 3, 10 μM drug, GABA 30 seconds at two minute intervals) was found to be 325%. Also, where the note is “IG-Actx elicited by 10 μM GABA”, the “Concentrations necessary” value was 0.1 to 0.3 µM and the concentration giving a half-maximal response (EC50) was 5.2 ± 1 µM. The “Potentiation at 10 μM (%)” value (drug 10 μM) stood at 268 ± 71%. Besides, the “reduction of the potentiation by a 1 minute wash” value (drug applied at 10 μM) was 90%.
`O=C(O)c1ccccc1Nc1cccc([N+](=O)[O-])c1` [NPAA, N-(3-nitrophenyl) anthranilic acid]: the potentiation under setting [2] is 350-400%. Also, the “modulatory effect on IG-Actx” value under setting [1] is listed as “clear facilitation”. Besides, the “time to complete wash out of potentiation” value (potentiation induced by 100 μM drug) was less than 10 min.
Turning to `COc1ccc2cc([C@H](C)C(=O)O)ccc2c1` [Naproxen], under “10 μM GABA, drug 100 μM”, the “effect on IG-Actx” value is given as “marginal increases”. Also, under “drug 100 μM”, the “Potentiation at 100 μM (%)” value is given as 11 ± 3%.
In the case of `O=C(O)c1cccnc1Nc1cccc(C(F)(F)F)c1` [Niflumic acid], the “maximum levels of potentiation” value is recorded as less than 50%. For the same compound, where the note is “IG-Actx elicited by 10 μM GABA”, the “Concentrations necessary” value was in the range of 1 to 10 µM and the EC50 is 10.5 ± 4 µM. Also, the “Potentiation at 10 μM (%)” value (drug 10 μM) was 28 ± 8%.
As to `O=C(O)c1ccccc1Nc1ccccc1` [PAA, N-phenyl-anthranilic acid], the “modulatory effect on IG-Actx” value (Example VIII, 10 μM GABA, drug 10 μM) was “essentially inactive”. Also, under setting [2], the potentiation is 30-40%.
Take `CCCCC1C(=O)N(c2ccccc2)N(c2ccccc2)C1=O` [Phenylbutazone]: the “effect on IG-Actx” value (10 μM GABA, drug 100 μM) is given as “slight reductions in current”. In addition, the “Potentiation at 10 μM (%)” value (drug 10 μM) is listed as “-- (no appreciable effect (<5% change from control))”. Further, the “Potentiation at 100 μM (%)” value (drug 100 μM) is -9 ± 2%.
Regarding `CN1C(C(=O)Nc2ccccn2)=C(O)c2ccccc2S1(=O)=O` [Piroxicam], for the setting “10 μM GABA, drug 100 μM”, the “effect on IG-Actx” value is “marginal increases”. Further, under “drug 10 μM”, the “Potentiation at 10 μM (%)” value is “-- (no appreciable effect (<5% change from control))”. Besides, the “Potentiation at 100 μM (%)” value (drug 100 μM) is recorded as 14 ± 9%.
For `CC1=C(CC(=O)O)c2cc(F)ccc2/C1=C\c1ccc([S+](C)[O-])cc1` (stereo not shown) [Sulindac], where the note is “10 μM GABA”, the “potentiation of IG-Actx” value is on record as “relatively weak, similar to niflumic acid”. Moreover, the “Potentiation at 10 μM (%)” value (drug 10 μM) is on record as 21 ± 7%. For the same compound, the “Potentiation at 100 μM (%)” value (drug 100 μM) turned out to be 123 ± 19%.
Take `Cc1ccccc1Nc1ccccc1C(=O)O` [TAA, N-(O-tolyl) anthranilic acid]: the “modulatory effect on IG-Actx” value under setting [1] is “clear modulatory effects”. For the same compound, the “potency relative to mefenamic acid” value (currents elicited by 10 μM GABA, FIG. 6B) is “approximately ten times less potent than mefenamic acid”.
For `Cc1ccc(C(=O)c2ccc(CC(=O)O)n2C)cc1` [Tolmetin], under “drug 100 μM”, the “Potentiation at 100 μM (%)” value is reported as “-- (no appreciable effect (<5% change from control))”.
In the case of `Nc1ccccc1` [aniline], the “modulatory effect on IG-Actx” value under setting [1] is listed as “neither aniline (1-100 μM) nor anthranilic acid potentiated the response”.
With `Nc1ccccc1C(=O)O` [anthranilic acid], the reduction of current result under setting [2] is listed as “approximately 15%”. Also, the “modulatory effect on IG-Actx” value under setting [1] is “neither aniline (1-100 μM) nor anthranilic acid potentiated the response”.
